These are yes or no findings as the source states them, for the method shown. Some entries that bind do so weakly or less than the wild type. Tags and fused reporters may be left off the sequences shown.
T1: GST-Vps21 (yeast) (UniProt P36017)
T1 sequence: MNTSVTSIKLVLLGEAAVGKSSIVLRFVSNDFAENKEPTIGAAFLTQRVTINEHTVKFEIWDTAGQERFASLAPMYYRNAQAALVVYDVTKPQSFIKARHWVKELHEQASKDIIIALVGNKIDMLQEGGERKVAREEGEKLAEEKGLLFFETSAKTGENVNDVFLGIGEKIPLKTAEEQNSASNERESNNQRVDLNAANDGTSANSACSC

T2: Vps8ΔN-TAP (C-terminal domain of Vps8, from residue 451, C-terminal TAP tag) (yeast (genomic locus of BY4741/BY4733 strains)) (UniProt P39702)
T2 sequence: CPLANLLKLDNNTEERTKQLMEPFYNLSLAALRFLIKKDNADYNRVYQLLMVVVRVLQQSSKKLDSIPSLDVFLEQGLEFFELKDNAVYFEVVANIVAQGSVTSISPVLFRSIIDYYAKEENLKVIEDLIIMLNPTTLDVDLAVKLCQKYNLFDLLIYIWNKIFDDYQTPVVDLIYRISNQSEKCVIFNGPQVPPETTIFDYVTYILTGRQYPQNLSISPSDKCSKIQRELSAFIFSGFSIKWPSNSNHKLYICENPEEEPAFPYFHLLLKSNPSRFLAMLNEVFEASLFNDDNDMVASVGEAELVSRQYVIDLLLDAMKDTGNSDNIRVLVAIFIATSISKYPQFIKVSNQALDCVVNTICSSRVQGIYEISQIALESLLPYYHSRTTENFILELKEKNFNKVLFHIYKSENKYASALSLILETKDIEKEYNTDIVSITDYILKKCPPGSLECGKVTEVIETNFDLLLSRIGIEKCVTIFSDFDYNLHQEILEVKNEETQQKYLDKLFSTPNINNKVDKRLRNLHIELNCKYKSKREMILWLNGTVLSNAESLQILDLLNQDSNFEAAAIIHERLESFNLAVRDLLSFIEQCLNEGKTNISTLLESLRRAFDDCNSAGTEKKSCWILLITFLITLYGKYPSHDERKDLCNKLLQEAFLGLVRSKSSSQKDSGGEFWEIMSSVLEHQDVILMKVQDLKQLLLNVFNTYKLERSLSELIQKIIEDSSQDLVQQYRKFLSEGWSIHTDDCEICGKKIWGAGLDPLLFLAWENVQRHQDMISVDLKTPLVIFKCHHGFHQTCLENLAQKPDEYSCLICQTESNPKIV

T3: Vps8-TAP (full-length Vps8, C-terminal TAP tag) (yeast (genomic locus of BY4741/BY4733 strains)) (UniProt P39702)
T3 sequence: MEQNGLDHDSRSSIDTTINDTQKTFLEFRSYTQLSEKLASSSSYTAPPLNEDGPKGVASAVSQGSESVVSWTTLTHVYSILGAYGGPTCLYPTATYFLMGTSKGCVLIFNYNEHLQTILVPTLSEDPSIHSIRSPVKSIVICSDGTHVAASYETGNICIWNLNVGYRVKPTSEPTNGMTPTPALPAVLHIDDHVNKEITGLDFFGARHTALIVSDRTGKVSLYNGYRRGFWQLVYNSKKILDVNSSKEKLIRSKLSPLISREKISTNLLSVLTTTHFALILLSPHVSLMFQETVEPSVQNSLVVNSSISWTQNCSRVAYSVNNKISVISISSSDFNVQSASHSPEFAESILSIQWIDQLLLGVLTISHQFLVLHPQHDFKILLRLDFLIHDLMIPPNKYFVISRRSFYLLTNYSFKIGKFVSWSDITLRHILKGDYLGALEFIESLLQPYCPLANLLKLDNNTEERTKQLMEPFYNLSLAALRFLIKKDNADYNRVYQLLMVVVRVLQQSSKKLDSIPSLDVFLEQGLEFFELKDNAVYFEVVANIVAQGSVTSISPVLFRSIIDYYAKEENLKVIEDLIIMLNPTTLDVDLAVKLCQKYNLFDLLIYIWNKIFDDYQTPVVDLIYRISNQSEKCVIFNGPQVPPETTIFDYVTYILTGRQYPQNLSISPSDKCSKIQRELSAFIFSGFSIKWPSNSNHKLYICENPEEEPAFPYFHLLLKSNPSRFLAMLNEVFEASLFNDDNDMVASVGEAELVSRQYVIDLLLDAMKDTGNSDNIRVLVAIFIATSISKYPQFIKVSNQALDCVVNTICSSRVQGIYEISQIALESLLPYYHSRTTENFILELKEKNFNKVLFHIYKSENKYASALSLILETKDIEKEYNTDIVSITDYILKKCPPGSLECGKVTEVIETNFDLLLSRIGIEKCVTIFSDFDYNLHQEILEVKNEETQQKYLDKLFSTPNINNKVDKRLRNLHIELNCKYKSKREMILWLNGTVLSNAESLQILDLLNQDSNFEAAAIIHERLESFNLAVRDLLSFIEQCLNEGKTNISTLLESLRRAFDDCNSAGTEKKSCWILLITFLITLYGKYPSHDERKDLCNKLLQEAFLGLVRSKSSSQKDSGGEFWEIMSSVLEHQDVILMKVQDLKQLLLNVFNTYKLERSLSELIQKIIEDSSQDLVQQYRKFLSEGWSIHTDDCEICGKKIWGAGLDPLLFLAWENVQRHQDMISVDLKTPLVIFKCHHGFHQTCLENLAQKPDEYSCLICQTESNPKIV


Tests used:
[1] = biological target: T1, GST-Vps21 (yeast); assay: pull-down; 150 µg GST-Vps21 loaded with GTPγS (or GDP) on GSH-Sepharose; 35 µg yeast-purified Vps3-Cbp construct, 1 h at 4°C; 20 mM HEPES/NaOH pH 7.4, 150 mM NaCl, 2 mM MgCl2, 0.1% NP-40, 7 mg/ml BSA; eluted with 20 mM EDTA; blot against Cbp; both purified
[2] = biological target: T2, Vps8ΔN-TAP (C-terminal domain of Vps8, from residue 451, C-terminal TAP tag) (yeast (genomic locus of BY4741/BY4733 strains)); assay: tandem affinity purification + glycerol gradient centrifugation; large-scale purification of overexpressed CORVET or ΔNTD-CORVET via Vps8-TAP on IgG beads (buffer with 0.15% NP-40), TEV eluate on a linear 10%-40% glycerol gradient, 18 h, 4°C; fractions on SDS-PAGE, Coomassie
[3] = biological target: T3, Vps8-TAP (full-length Vps8, C-terminal TAP tag) (yeast (genomic locus of BY4741/BY4733 strains)); assay: as above

| Binder | binding [1] | also measured |
| --- | --- | --- |
| Vps3ΔC-TAP (N-terminal domain of Vps3, up to residue 426, C-terminal TAP tag) (domain or fragment, UniProt P23643 1-426) MVKKKTNNDKGKEVKENEGKLDIDSESSPHERENDKKKTEDDSLRATESEETNTHNANPNETVRADKFSQEESRPIEDSPHTDKNTAQESCQPSSAEDNVINTDITSLNEKTSTNDEQEKGLPLKISEGPFTISTLLDNVPSDLIYTCCEAYENHIFLGTTTGDLLHYFELERGNYMLVSQTKFDAESNSKIDKILLLPKVEGALILCDNELVLFILPEFAPRPNTTRLKGISDVVICNFSRSSKAYRIYAFHAEGVRLLKISADSLVLTKAFNFKLIDKACAHEETLMVSKLNSYELINLKSSQVIPLFRISETDEDLEPIITSFNEQSEFLVCSGGGSYDSGAMALVVNHHGDIIKGTIVLKNYPRNVIVEFPYIIAESAFQSVDIYSALPSEKSQLLQSITTSGSDLKISKSDNVFTNTNNSE | no binding (tested: 35 µg of Vps3 construct) | – |
| Vps3ΔN-GFP (Vps3 from residue 427, GFP tag) (domain or fragment, UniProt P23643 427-1011) EFKEKIFNKLRLEPLTHSDNKFRIERERAFVEESYEEKTSLIVYNNLGIHLLVPTPMVLRFTSCEESEIDNIEDQLKKLAKKDLTKFEHIEAKYLMSLLLFLMTLHYDHIEDEVMKKWCDFSDKVDIRILFYMFGWKVYSEIWCFHGLINIVERLKSLKLTNKCENILKMLLMMKNELKKKNKTGLLTNDFDDIMKTIDITLFKLRLEKKETITVDMFERESYDEIIREINLHDDKLPRIELLIEIYKEKGEYLKALNLLREAGDYISLVSFIEENLKKLPEDYIKERIADDLLLTLKQGDENTEECAIKKVLKILDMACINKNDFLNKIPAEETSLKVSFIEQLGVQNSNDSKFLFNYYLAKLREIINQSNIWSILGDFIKEYKDDFAYDKTDITNFIHIKLKHSLQCENFSKYYEKCENLKSENEKDDEFINFTFDEISKIDKEHILTLLFFPNELTNWVSSEELLKIYLSFNDFRSVEKYIGKQNLVAVMKQYLDISSLNYSVELVTNLLQRNFELLDDTDIQLKILETIPSVFPVQTISELLLKVLIKYQEKKEESNLRKCLLKNQISISDELSRNFDSQG | – | binding [2]: binds |
| Vps3ΔN-TAP (C-terminal domain of Vps3, from residue 427, C-terminal TAP tag) (domain or fragment, UniProt P23643 427-1011) EFKEKIFNKLRLEPLTHSDNKFRIERERAFVEESYEEKTSLIVYNNLGIHLLVPTPMVLRFTSCEESEIDNIEDQLKKLAKKDLTKFEHIEAKYLMSLLLFLMTLHYDHIEDEVMKKWCDFSDKVDIRILFYMFGWKVYSEIWCFHGLINIVERLKSLKLTNKCENILKMLLMMKNELKKKNKTGLLTNDFDDIMKTIDITLFKLRLEKKETITVDMFERESYDEIIREINLHDDKLPRIELLIEIYKEKGEYLKALNLLREAGDYISLVSFIEENLKKLPEDYIKERIADDLLLTLKQGDENTEECAIKKVLKILDMACINKNDFLNKIPAEETSLKVSFIEQLGVQNSNDSKFLFNYYLAKLREIINQSNIWSILGDFIKEYKDDFAYDKTDITNFIHIKLKHSLQCENFSKYYEKCENLKSENEKDDEFINFTFDEISKIDKEHILTLLFFPNELTNWVSSEELLKIYLSFNDFRSVEKYIGKQNLVAVMKQYLDISSLNYSVELVTNLLQRNFELLDDTDIQLKILETIPSVFPVQTISELLLKVLIKYQEKKEESNLRKCLLKNQISISDELSRNFDSQG | no binding (tested: 35 µg of Vps3 construct) | – |
| Vps3-GFP (full-length Vps3, GFP tag) (protein, UniProt P23643 1-1011) MVKKKTNNDKGKEVKENEGKLDIDSESSPHERENDKKKTEDDSLRATESEETNTHNANPNETVRADKFSQEESRPIEDSPHTDKNTAQESCQPSSAEDNVINTDITSLNEKTSTNDEQEKGLPLKISEGPFTISTLLDNVPSDLIYTCCEAYENHIFLGTTTGDLLHYFELERGNYMLVSQTKFDAESNSKIDKILLLPKVEGALILCDNELVLFILPEFAPRPNTTRLKGISDVVICNFSRSSKAYRIYAFHAEGVRLLKISADSLVLTKAFNFKLIDKACAHEETLMVSKLNSYELINLKSSQVIPLFRISETDEDLEPIITSFNEQSEFLVCSGGGSYDSGAMALVVNHHGDIIKGTIVLKNYPRNVIVEFPYIIAESAFQSVDIYSALPSEKSQLLQSITTSGSDLKISKSDNVFTNTNNSEEFKEKIFNKLRLEPLTHSDNKFRIERERAFVEESYEEKTSLIVYNNLGIHLLVPTPMVLRFTSCEESEIDNIEDQLKKLAKKDLTKFEHIEAKYLMSLLLFLMTLHYDHIEDEVMKKWCDFSDKVDIRILFYMFGWKVYSEIWCFHGLINIVERLKSLKLTNKCENILKMLLMMKNELKKKNKTGLLTNDFDDIMKTIDITLFKLRLEKKETITVDMFERESYDEIIREINLHDDKLPRIELLIEIYKEKGEYLKALNLLREAGDYISLVSFIEENLKKLPEDYIKERIADDLLLTLKQGDENTEECAIKKVLKILDMACINKNDFLNKIPAEETSLKVSFIEQLGVQNSNDSKFLFNYYLAKLREIINQSNIWSILGDFIKEYKDDFAYDKTDITNFIHIKLKHSLQCENFSKYYEKCENLKSENEKDDEFINFTFDEISKIDKEHILTLLFFPNELTNWVSSEELLKIYLSFNDFRSVEKYIGKQNLVAVMKQYLDISSLNYSVELVTNLLQRNFELLDDTDIQLKILETIPSVFPVQTISELLLKVLIKYQEKKEESNLRKCLLKNQISISDELSRNFDSQG | – | binding [3]: binds |
